Results on 3 molecules are retold here after US20170307628A1 (EIDGENOESSISCHE TECHNISCHE HOCHSCHULE ZURICH, published 2017).

One assay has as its target T1, mouse serum albumin (mouse, UniProt P07724 25-608).
T1 construct: also called MSA
Description: ELISA of soluble protein on coated albumins. On the technique in general: In an ELISA, binding on a coated surface is turned into a signal by an enzyme label.

A further assay concerns the target T2, human serum albumin (human, UniProt P02768).
T2 construct: also called HSA
Description: ELISA of soluble protein on coated albumins.

The next assay deals with T3, ovalbumin (chicken, UniProt P01012 2-386).
T3 construct: also called hen egg white albumin; Albumin from chicken egg white
T3 sequence (looked up): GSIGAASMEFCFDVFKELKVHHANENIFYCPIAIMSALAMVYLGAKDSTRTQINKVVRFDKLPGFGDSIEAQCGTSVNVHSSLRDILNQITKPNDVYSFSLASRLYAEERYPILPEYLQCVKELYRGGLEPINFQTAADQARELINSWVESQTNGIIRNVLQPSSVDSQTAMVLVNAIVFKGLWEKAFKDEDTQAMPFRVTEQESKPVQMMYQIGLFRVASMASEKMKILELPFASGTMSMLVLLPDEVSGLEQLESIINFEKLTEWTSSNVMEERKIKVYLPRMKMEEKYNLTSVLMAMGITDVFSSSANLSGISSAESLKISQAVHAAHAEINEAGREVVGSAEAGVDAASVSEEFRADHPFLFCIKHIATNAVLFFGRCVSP
Description: ELISA of soluble protein on coated albumins.

For the next assay, the target named is T4, rat serum albumin (rat, UniProt P02770 25-608).
T4 construct: also called RSA
Kind of assay: ELISA of soluble protein on coated albumins.

Assay [1] deals with T5, bovine serum albumin (bovine, UniProt P02769).
T5 construct: also called BSA
Description: ELISA of soluble protein on coated albumins.

Assay [2] concerns the target T6, chymase (UniProt P23946 22-247).
T6 construct: biotinylated in ELISA and SPR; the structures number the chain serially from 1 with the catalytic serine at 182; also called serine protease chymase (E.C. 3.4.21.39)
T6 sequence (looked up): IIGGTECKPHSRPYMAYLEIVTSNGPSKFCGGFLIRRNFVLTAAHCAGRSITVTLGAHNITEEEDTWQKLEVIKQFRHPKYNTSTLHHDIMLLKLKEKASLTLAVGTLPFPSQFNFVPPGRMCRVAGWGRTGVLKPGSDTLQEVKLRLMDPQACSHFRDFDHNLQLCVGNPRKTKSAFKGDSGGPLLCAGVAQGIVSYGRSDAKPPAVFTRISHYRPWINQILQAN
Kind of assay: SPR BIAcore, biotinylated chymase on SA chip. (Surface plasmon resonance follows binding to a sensor surface in real time, without labels.)

Assay [3] deals with T5, bovine serum albumin. Kind of assay: ELISA on biotinylated BSA on streptavidin wells, anti-myc 9E10.
T5 sequence (P02769 25-607 limits assumed): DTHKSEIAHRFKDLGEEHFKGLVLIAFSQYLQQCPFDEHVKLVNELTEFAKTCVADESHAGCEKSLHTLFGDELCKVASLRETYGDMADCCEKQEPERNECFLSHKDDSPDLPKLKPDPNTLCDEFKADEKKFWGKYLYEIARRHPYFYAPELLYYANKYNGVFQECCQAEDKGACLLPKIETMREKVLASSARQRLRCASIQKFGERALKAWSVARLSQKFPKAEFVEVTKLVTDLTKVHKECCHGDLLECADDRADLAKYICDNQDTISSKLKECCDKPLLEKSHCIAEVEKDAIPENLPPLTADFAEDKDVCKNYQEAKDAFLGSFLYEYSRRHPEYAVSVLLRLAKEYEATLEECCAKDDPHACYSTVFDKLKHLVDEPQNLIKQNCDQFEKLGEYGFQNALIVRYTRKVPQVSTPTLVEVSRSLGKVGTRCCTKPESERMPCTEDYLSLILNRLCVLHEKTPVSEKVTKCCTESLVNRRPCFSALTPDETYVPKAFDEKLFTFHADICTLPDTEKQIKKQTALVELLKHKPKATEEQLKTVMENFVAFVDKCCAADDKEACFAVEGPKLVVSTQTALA
The target of assay [4] is T6, chymase. Kind of assay: cell-based or functional assay.
Assay [5] deals with T7, recombinant human IL-17A (human, UniProt Q16552 20-155, limits assumed).
T7 construct: biotinylated in the phage ELISA and on the SA chip; also called hIL-17A; human Interleukin 17A
Description: SPR BIAcore, biotinylated IL-17A on SA chip.

In assay [6] the target is T7, recombinant human IL-17A. Kind of assay: cell-based or functional assay.
T7 sequence (Q16552 20-155 limits assumed): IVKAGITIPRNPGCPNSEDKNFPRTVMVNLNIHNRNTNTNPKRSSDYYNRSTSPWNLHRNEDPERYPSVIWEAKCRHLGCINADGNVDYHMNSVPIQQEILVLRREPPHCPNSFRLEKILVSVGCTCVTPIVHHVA

Usually Kd stands for the free concentration of one partner at which half of the binding sites on the other are occupied at equilibrium, for simple one-to-one binding. The term koff denotes a measure of how fast the partners let go of each other. Low readings indicate slow dissociation, high ones fast dissociation.

Sequence of rat serum albumin (P02770 25-608 limits assumed): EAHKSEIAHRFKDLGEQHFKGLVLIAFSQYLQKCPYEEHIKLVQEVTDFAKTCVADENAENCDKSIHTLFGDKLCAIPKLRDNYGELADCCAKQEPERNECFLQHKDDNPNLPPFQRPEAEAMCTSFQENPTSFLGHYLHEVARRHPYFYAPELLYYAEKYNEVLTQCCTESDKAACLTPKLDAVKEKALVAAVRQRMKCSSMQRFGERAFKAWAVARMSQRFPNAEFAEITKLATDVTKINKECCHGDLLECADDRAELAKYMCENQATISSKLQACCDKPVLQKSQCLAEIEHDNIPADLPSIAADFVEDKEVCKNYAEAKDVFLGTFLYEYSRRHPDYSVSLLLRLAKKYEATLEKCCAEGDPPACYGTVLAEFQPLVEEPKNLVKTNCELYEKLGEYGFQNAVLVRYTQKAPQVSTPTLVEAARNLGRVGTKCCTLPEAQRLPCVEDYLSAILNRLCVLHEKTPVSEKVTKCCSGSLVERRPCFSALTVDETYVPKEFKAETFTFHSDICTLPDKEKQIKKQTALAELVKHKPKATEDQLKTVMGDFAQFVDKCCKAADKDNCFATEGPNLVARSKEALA
Sequence of mouse serum albumin (P07724 25-608 limits assumed): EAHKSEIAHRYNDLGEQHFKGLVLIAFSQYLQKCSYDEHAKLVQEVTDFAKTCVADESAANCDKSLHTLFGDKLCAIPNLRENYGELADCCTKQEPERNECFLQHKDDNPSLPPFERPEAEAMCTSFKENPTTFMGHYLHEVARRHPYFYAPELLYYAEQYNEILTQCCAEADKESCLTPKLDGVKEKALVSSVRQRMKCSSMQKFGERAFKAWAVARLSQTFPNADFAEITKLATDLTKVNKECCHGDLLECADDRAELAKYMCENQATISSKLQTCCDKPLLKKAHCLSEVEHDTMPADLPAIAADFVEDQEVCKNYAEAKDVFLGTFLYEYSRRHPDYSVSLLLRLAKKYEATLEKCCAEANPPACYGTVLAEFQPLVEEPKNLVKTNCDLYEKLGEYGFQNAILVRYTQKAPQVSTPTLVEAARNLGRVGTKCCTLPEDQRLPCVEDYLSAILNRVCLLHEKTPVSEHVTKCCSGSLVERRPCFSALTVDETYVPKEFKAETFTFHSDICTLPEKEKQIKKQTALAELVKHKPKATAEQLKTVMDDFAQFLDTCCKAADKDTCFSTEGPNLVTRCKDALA

B1: Fyn SH3 wild type protein (other)
chain: GVTLFVALYDYEARTEDDLSFHKGEKFQILNSSEGDWWEARSLTTGETGYIPSNYVAPVDSIQ
notes: control protein; also called Fyn SH3 wt; wild-type Fyn SH3 domain
As for B1, the binding result with mouse serum albumin, with human serum albumin, with ovalbumin, in the assay with rat serum albumin and with bovine serum albumin [1] was “no binding” throughout.

B2: E4 (chymase binder) (designed binder)
chain: GVTLFVALYDYNATRWTDLSFHKGEKFQILEFGPGDWWEARSLTTGETGYIPSNYVAPVDSIQ
In the assay with chymase [2], B2 returned a Kd of 0.9 nM and a koff of 0.00066 s⁻¹. Further, the binding result in the assay with bovine serum albumin [3] was “no binding (tested: 200 nM)”. Further, in the assay with chymase [4], the “IC50 (nM), inhibition of chymase activity, fluorescent substrate” value is 2 nM.

B3: E4 (IL-17A binder) (designed binder)
chain: GVTLFVALYDYKAFWPGDISFHKGEKFQILRTSDGEWWVARSLTTGEEGYIPSNYVAPVDSIQ
notes: also called clone E4
On to B3, for which the Kd in the assay with recombinant human IL-17A [5] turned out to be 31 nM. For the same molecule, the “inhibition of IL-17A induced IL-6 production in NHDF cells, IC50” value with recombinant human IL-17A [6] was roughly 6 nM.
